Experimental data taken from patent US20260201030A1 (EVOPOINT BIOSCIENCES, published 2026).

How the values were obtained:
[1] = biological target: T1, human Claudin18.2 (human, UniProt P56856-2 1-261); assay: cell-based or functional assay
[2] = biological target: T2, human Claudin18.1 (human, UniProt P56856 1-261); assay: FACS on HEK293T-Claudin18.1 (human) cells
T2 construct: whole, on cells; also called CLDN18.1; HEK293T-Claudin18.1 (human)

[3] = biological target: T1, human Claudin18.2; assay: FACS on HEK293T-Claudin18.2 (human) cells
Protocol: The affinity of the anti-human Claudin18.2 humanized antibodies was detected by flow cytometry. The experimental procedures were as follows: The adherent cultured HEK293T-Claudin18.2 (human), NUGC4-Claudin18.2 (human) and NUGC4 cells were digested, collected by centrifugation, and washed three times with pre-cooled PBS. The cells were resuspended in 1% BSA (in PBS) and added to a 96-well pointed bottom plate at 3×10⁵ cells/well, with a volume of 50 μL per well. Each test antibody was diluted with 1% BSA (in PBS) (starting at 100 μg/mL, diluted in a 3-fold gradient, for 10 concentration points). The test antibody subjected to gradient dilution was added to the cells at 50 μL/well, and the mixture was well mixed and incubated at 4° C. for 1 h. The cells were collected by centrifugation, washed three times with pre-cooled PBS, and resuspended in 50 μL of 1% BSA (in PBS). 1 μL of a fluorescent secondary antibody (Biolegend-410712) was added to each well, and the mixture was well mixed and incubated at 4° C. for 0.5 h. The cells were collected by centrifugation, washed three times with pre-cooled PBS, resuspended in 200 μL of PBS, and assayed on a machine.

[4] = biological target: T1, human Claudin18.2; assay: cell-based ELISA on L929-Claudin18.2 (human) cells
[5] = biological target: T1, human Claudin18.2; assay: cell-based ELISA on HEK293T-Claudin18.2 (human) cells
Protocol: The affinity of the anti-human Claudin18.2 murine monoclonal antibodies was evaluated by cell-based ELISA. The experimental procedures were as follows: The day before the experiment, HEK293T-Claudin18.2 (human) cells were plated in a 96-well plate at 5×10⁴ cells/well. On the day of the experiment, the supernatant was removed, the cells in each well were washed once with 300 μL of PBS, and 100 μL of 4% paraformaldehyde was added to each well for fixation at room temperature for 20 min. Paraformaldehyde was then removed, and the cells in each well were washed twice with 300 μL of PBS. 100 μL of 2% BSA (in PBS) was added to each well, and the mixture was blocked at 37° C. for 2 h. After removing the blocking solution, each antibody subjected to gradient dilution (diluted with 2% BSA (in PBS), starting at […], in a 3-fold gradient, for a total of 11 concentration points) was added to the plate at 100 μL/well, and the mixture was incubated at 37° C. for 2 h. The supernatant was removed, and the cells in each well were washed three times with 300 μL of PBST. […] The reaction was stopped by adding 50 μL of 2 N HCl to each well, and OD_{450 nm} values were read on a microplate reader (manufacturer: MD, model: SpectraMax). […]
The affinity of the anti-human Claudin18.2 humanized monoclonal antibodies was determined by cell-based ELISA. […]

[6] = biological target: T2, human Claudin18.1; assay: FACS on HEK293T-Claudin18.1 (human) cells, antibody 50 µg/mL
Protocol: The specificity of the anti-human Claudin18.2 humanized monoclonal antibodies was determined by flow cytometry (FACS). The experimental procedures were as follows: HEK293T-Claudin18.1 (human) cells were digested, collected by centrifugation, washed three times with pre-cooled PBS, resuspended in 1% BSA (in PBS), and added to a 96-well pointed bottom plate at 3×10⁵ cells/well. Each test antibody with a final concentration of 50 μg/mL was added, and the mixture was incubated at 4° C. for 1 h. The cells were washed three times with pre-cooled PBS, and then 1 μL of a fluorescent secondary antibody (APC: Biolegend-410712 or PE: BioLegend-410708) was added to each well. The mixture was incubated at 4° C. for 0.5 h, and the cells were washed three times with pre-cooled PBS, then resuspended, and assayed on a flow cytometer. For reference, anti-human Claudin18.1 positive control antibodies (positive control antibody-1 and positive control antibody-2) were included in the experiment.

[7] = biological target: T1, human Claudin18.2; assay: cell-based ELISA on NUGC4 cells (endogenous human Claudin18.2)
[8] = biological target: T1, human Claudin18.2; assay: cell-based ELISA (OD450) on NUGC4 cells (endogenous human Claudin18.2)

ADCC activity EC50 (Jurkat-NFAT-CD16a luciferase reporter, HEK293T-Claudin18.2 (human) target cells) [1] | binding result [2] | EC50 [3] | Maximum signal value [3] | EC50 [4] | EC50 [5] | Positive rate (%) [6] | EC50 [7] | Maximum signal value [8] | Binder | CDC activity EC50 (guinea pig serum killing, CCK8, HEK293T-Claudin18.2 (human) cells) [1]
0.0479 µg/mL | no binding (tested: 50 µg/mL) | 0.369 µg/mL | 133000 | 0.0171 µg/mL | 0.0127 µg/mL | 0.69% | 0.0952 µg/mL | 0.316 | 2D3A11-HZ1 (antibody, human IgG1, kappa, Humanized) heavy: QVQLVQSGAEVKKPGASVKVSCKASGYTFTSYVVHWVRQAPGQGLEWMGYINPYNADSKYSQEFQGRATLTSDKSASTAYMELSSLRSEDMAVYYCSRSYYGNSFDVWGQGTLVTVSS[human IgG1 constant region omitted here] light: DIVMTQSPDSLAVSLGERATINCKSSQSLLNSGNQKNYLTWYQQKPGQSPKLLFFWASTRQSGVPDRFSGSGSGTDFTLTISSLQAEDVAVYYCQNDYYFPFTFGQGTKVEIKRTVAAPSVFIFPPSDEQLKSGTASVVCLLNNFYPREAKVQWKVDNALQSGNSQESVTEQDSKDSTYSLSSTLTLSKADYEKHKVYACEVTHQGLSSPVTKSFNRGEC | 1.9 µg/mL
– | no binding (tested: 50 µg/mL) | – | – | 0.0256 µg/mL | 0.014 µg/mL | 1% | – | – | 2D3A11-HZ2 (antibody, human IgG1, kappa, Humanized; also called 2D3A-HZ2) heavy: QVQLVESGAEVKKPGASVKVSCKASGYTFTSYVVHWVRQAPGQGLEWMGYINPYNADSKYSQEFQGRATLTSDKSASTAYMELSSLRSEDMAVYYCSRSYYGNSFDVWGQGTLVTVSS[human IgG1 constant region omitted here] light: DIVMTQSPDSLAVSLGERATINCKSSQSLLNSGNQKNYLTWYQQKPGQSPKLLFFWASTRQSGVPDRFSGSGSGTDFTLTISSLQAEDVAVYYCQNDYYFPFTFGQGTKVEIKRTVAAPSVFIFPPSDEQLKSGTASVVCLLNNFYPREAKVQWKVDNALQSGNSQESVTEQDSKDSTYSLSSTLTLSKADYEKHKVYACEVTHQGLSSPVTKSFNRGEC | –
